{"source": "paper PMC6919601", "about": "“Identification of Plasmodium dipeptidyl aminopeptidase allosteric inhibitors by high throughput screening” (PLoS ONE, 2019)", "note": "Values joined by “and” are separate entries in the source; they are usually repeats but may differ in a detail not shown here. Equal values may be shown once. The whole screen tested about 110,000 compounds, of which about 230 (0.21%) showed an effect of 50% or more. The list shows a part of the results.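 Also: 30 min substrate incubation versus DMSO and 10 µM JCP410 controls.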"}
{"target": "DPAP1 (Plasmodium falciparum, UniProt Q8IIJ9)", "sequence (Q8IIJ9 whole entry, looked up)": "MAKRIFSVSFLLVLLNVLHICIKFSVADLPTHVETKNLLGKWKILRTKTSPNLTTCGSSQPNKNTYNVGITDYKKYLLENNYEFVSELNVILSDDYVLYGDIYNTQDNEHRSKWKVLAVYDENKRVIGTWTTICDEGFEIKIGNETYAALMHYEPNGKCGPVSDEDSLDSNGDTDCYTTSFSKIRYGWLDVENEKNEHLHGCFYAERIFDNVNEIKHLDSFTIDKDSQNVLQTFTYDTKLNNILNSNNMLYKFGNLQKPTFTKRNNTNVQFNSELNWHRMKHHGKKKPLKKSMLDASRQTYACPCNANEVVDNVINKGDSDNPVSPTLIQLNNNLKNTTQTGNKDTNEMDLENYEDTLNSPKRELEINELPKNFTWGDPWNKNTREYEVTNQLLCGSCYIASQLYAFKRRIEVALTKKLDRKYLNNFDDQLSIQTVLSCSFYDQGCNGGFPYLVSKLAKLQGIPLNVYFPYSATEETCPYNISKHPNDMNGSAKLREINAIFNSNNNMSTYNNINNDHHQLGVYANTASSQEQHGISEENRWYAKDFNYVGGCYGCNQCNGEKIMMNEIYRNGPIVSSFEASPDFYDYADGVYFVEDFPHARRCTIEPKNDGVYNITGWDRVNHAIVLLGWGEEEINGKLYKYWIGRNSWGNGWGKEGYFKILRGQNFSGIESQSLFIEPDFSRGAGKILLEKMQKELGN", "test": "primary screen, percent inhibition; read by cleavage of a fluorogenic dipeptide substrate; higher = more effect of the substance", "parameters": "species or system P. falciparum D10 trophozoite lysates; single well"}
{"smiles": "CCOc1ccc(/C=C2\\SC(N3CCN(C)CC3)=NC2=O)cc1", "% Inhibition @ 10 uM": "-5.85%"}
{"smiles": "CNC(=O)C(=O)Nc1ccc(OC)c(OC)c1", "% Inhibition @ 10 uM": "-0.414%"}
{"smiles": "O=C(c1cc(-c2ccccc2)[nH]n1)N1CC=C(c2ccccc2)CC1", "% Inhibition @ 10 uM": "3.3%"}
{"smiles": "O=C(NCc1ccccc1Cl)C1CCN(C(=O)c2sccc2-n2cccc2)CC1", "% Inhibition @ 10 uM": "1.72%"}
{"smiles": "CCOC(=O)C1=C(CNCCc2ccc(OC)cc2)NC(=O)NC1c1cc(C)ccc1C", "note": "(stereo not shown)", "% Inhibition @ 10 uM": "-3.76%"}
{"smiles": "CN(C)CCN(C(=O)c1ccco1)c1nc2ccc(F)cc2s1", "% Inhibition @ 10 uM": "0.174%"}
{"smiles": "COc1ccc(CCNC(=O)C(C)n2ccc3cc(S(=O)(=O)N4CCCC4)ccc32)cc1OC", "note": "(stereo not shown)", "% Inhibition @ 10 uM": "5.14%"}
{"smiles": "COc1cc2c(cc1OC)C1C(C(=O)NCCC3=CCCCC3)c3ccccc3C(=O)N1CC2", "note": "(stereo not shown)", "% Inhibition @ 10 uM": "5.19%"}
{"smiles": "CCc1ccccc1N(CC(=O)Nc1ccc(OC)cc1OC)S(C)(=O)=O", "% Inhibition @ 10 uM": "2.02%"}
{"smiles": "COc1ccccc1C(=O)Nc1cccnc1", "% Inhibition @ 10 uM": "-1.96%"}
{"smiles": "Cc1ccc(-n2nc3c(=O)n(CCCC(=O)NCCN4CCN(C)CC4)nc(C)c3c2C)cc1", "% Inhibition @ 10 uM": "-2.68%"}
{"smiles": "CC(NS(=O)(=O)c1ccc(F)cc1)c1ccccc1", "note": "(stereo not shown)", "% Inhibition @ 10 uM": "-8.01%"}
{"smiles": "CCC(C)Oc1ccc(C2CC(=O)NC3=C2C(=O)CC(C)(C)C3)cc1", "note": "(stereo not shown)", "% Inhibition @ 10 uM": "-3.51%"}
{"smiles": "Cc1ccc(N(Cc2ccc(C(=O)Nc3ccccc3)cc2)S(C)(=O)=O)cc1C", "% Inhibition @ 10 uM": "3.17%"}
{"smiles": "O=C(CSc1ncnc2scc(-c3ccccc3)c12)N1CCCCCC1", "% Inhibition @ 10 uM": "5.61%"}
{"smiles": "CC1CCN(C(=O)c2nn3c(c2Cl)NC(c2ccco2)CC3C(F)(F)F)CC1", "note": "(stereo not shown)", "% Inhibition @ 10 uM": "-0.996%"}
{"smiles": "O=C(/C=C/c1ccco1)N(Cc1ccccc1F)C1CCS(=O)(=O)C1", "note": "(stereo not shown)", "% Inhibition @ 10 uM": "3.62%"}
{"smiles": "COc1ccc(NC(=O)COc2ccc(C)cc2)cc1", "% Inhibition @ 10 uM": "-3.92%"}
{"smiles": "C=CCOc1ccc(C(=O)C2=C(O)C(=O)N(CCN(C)C)C2c2ccc(OC)c(OC)c2)cc1C", "note": "(stereo not shown)", "% Inhibition @ 10 uM": "3.15%"}
{"smiles": "COc1ccc(C(=O)Nc2nc3c(s2)CCCC3)c(OC)c1OC", "% Inhibition @ 10 uM": "5.55%"}
{"smiles": "C=CCN(CC#CC(O)(c1ccccc1)c1ccccc1)CC=C", "% Inhibition @ 10 uM": "-1.99%"}
{"smiles": "CCN(CC)CCCNCc1ccc(OC(C)C)c(OC)c1", "% Inhibition @ 10 uM": "-4.97%"}
{"smiles": "COc1ccc(Br)cc1C(=O)Nc1ccc(CN2CCOCC2)cc1", "% Inhibition @ 10 uM": "-6.43%"}
{"smiles": "O=C(n1nnc2cc(Cl)c(Cl)cc21)C(F)(F)F", "% Inhibition @ 10 uM": "-1.29%"}
{"smiles": "Cc1nn(-c2cccc(F)c2)c2c1c(C(F)(F)F)cc(=O)n2CC(=O)NCc1ccco1", "% Inhibition @ 10 uM": "-3.04%"}
{"smiles": "Cc1cc2c(cc1C)C(=O)NC(C)(C)C2", "% Inhibition @ 10 uM": "0.162%"}
{"smiles": "COc1ccc(NC(=O)CCN2CCN(c3ccccc3)CC2)cc1", "% Inhibition @ 10 uM": "-4.21%"}
{"smiles": "COc1ccc(-c2cn3c(n2)sc2cc(C(=O)N4CCCC(C)C4)ccc23)cc1", "note": "(stereo not shown)", "% Inhibition @ 10 uM": "1.52%"}
{"smiles": "COc1ccc2c(c1)c1c(c(=O)n(Cc3ccccc3)c(=O)n1Cc1cc(=O)n3ccccc3n1)n2C", "% Inhibition @ 10 uM": "-0.742%"}
{"smiles": "CCOC(=O)C1=C(C)N(C)C(=O)NC1c1ccccc1O", "note": "(stereo not shown)", "% Inhibition @ 10 uM": "-8.17%"}
{"smiles": "Cc1ccc(NC(=O)c2c(-c3c(F)cccc3Cl)noc2C)nc1", "% Inhibition @ 10 uM": "-0.999%"}
{"smiles": "O=C(NCc1ccco1)C1CCN(c2nn3cc(-c4ccc(F)cc4)nc3s2)CC1", "% Inhibition @ 10 uM": "0.0322%"}
{"smiles": "O=c1cc(-c2ccccc2)c2cc(Cl)c(OCc3ccc(F)cc3)cc2o1", "% Inhibition @ 10 uM": "-0.267%"}
{"smiles": "CC(C)c1ccc(C2NCCc3[nH]cnc32)cc1", "note": "(stereo not shown)", "% Inhibition @ 10 uM": "0.774%"}
{"smiles": "O=C(c1ccc(CNS(=O)(=O)c2cccc(Cl)c2)cc1)N1CCN(c2ccccc2)CC1", "% Inhibition @ 10 uM": "5.92%"}
{"smiles": "CCCn1c(=O)c2sccc2n2c(CCCC(=O)NCC3CCCO3)nnc12", "note": "(stereo not shown)", "% Inhibition @ 10 uM": "-2.15%"}
{"smiles": "O=C(NCc1ccncc1)c1ccc2nc(/C=C(\\O)c3ccc(Cl)cc3)c(O)nc2c1", "% Inhibition @ 10 uM": "-7.91%"}
{"smiles": "CCN(CC)S(=O)(=O)c1csc(C(=O)OCC(=O)c2ccccc2)c1", "% Inhibition @ 10 uM": "-6.17%"}
{"smiles": "COc1ccc(OC)c(S(=O)(=O)NCc2ccccc2OC)c1", "% Inhibition @ 10 uM": "-7.01%"}
{"smiles": "CCN(CC)CCNC(=O)Cn1cnc2sc(C)c(S(=O)(=O)N3CC(C)CC(C)C3)c2c1=O", "note": "(stereo not shown)", "% Inhibition @ 10 uM": "0.813%"}
{"smiles": "CC1=NN(c2nc3ccccc3s2)C(=O)C1", "% Inhibition @ 10 uM": "0.968%"}
{"smiles": "CC1CCCCC1NC(=O)Cn1ccc2cc(S(=O)(=O)N3CCCC3)ccc21", "note": "(stereo not shown)", "% Inhibition @ 10 uM": "-5.04%"}
{"smiles": "CCOc1ccc(S(=O)(=O)Nc2cccc(-c3cn4ccsc4n3)c2)cc1", "% Inhibition @ 10 uM": "1.37%"}
{"smiles": "CCC(Oc1ccccc1)C(=O)Nc1ccc(F)cc1", "note": "(stereo not shown)", "% Inhibition @ 10 uM": "1.13%"}
{"smiles": "C=CCNC(=O)C(=O)Nc1ccc(Br)cc1", "% Inhibition @ 10 uM": "2.94%"}
{"smiles": "Cc1ccc(C(=O)N2CCc3ccccc3C2)cc1[N+](=O)[O-]", "% Inhibition @ 10 uM": "-6.27%"}
{"smiles": "Clc1ccc(-n2ncnc2-c2ccncc2)cc1", "% Inhibition @ 10 uM": "-1.56%"}
{"smiles": "COc1cccc(NC(=O)Nc2ccc3c(c2)nc(C)n3C)c1", "% Inhibition @ 10 uM": "7.98%"}
{"smiles": "COc1ccc(C(=O)CSc2nc3nc(C)cc(C)n3n2)cc1OC", "% Inhibition @ 10 uM": "-1.11%"}
{"smiles": "O=C(Cc1cccc2ccccc12)NCc1ccc(F)cc1", "% Inhibition @ 10 uM": "-1.46%"}
{"smiles": "CC(=O)c1c(O)cc(C(C)C)n(-c2ccccc2)c1=O", "% Inhibition @ 10 uM": "4.7%"}
{"smiles": "Cc1ccc(-n2ccc(N)cc2=O)cc1", "% Inhibition @ 10 uM": "1.24%"}
{"smiles": "Cc1cccc(OC(C)C(=O)NCc2ccc(F)cc2)c1", "note": "(stereo not shown)", "% Inhibition @ 10 uM": "-3.77% and -1.51%"}
{"smiles": "COc1ccc(NC(=O)c2ccc(C(C)(C)C)cc2)c(OC)c1", "% Inhibition @ 10 uM": "-3.24%"}
{"smiles": "CC(=O)/C(Sc1nnc(-c2ccccc2Cl)n1-c1ccccc1)=C(/C)O", "% Inhibition @ 10 uM": "-0.597%"}
{"smiles": "CCOC(=O)c1c(C)nc2sccn12", "% Inhibition @ 10 uM": "5.16%"}
{"smiles": "Fc1ccccc1OCCN1CCCC1", "% Inhibition @ 10 uM": "-2.91%"}
{"smiles": "CCO/C(O)=C1/C(C)=NC2=C(C(=O)CCC2)C1c1ccc(SC)cc1", "note": "(stereo not shown)", "% Inhibition @ 10 uM": "-3.09%"}
{"smiles": "O=C(O)c1cc(-c2ccc3c(c2)OCCO3)nc2ccc(Br)cc12", "% Inhibition @ 10 uM": "-9.93%"}
{"smiles": "CCOC(=O)c1c(NC(=O)C2CCCCC2)sc(C(=O)NC2CCCCC2)c1C", "% Inhibition @ 10 uM": "5.44%"}
{"smiles": "C=CCNC(=O)CCCc1nc(-c2ccccc2Cl)no1", "% Inhibition @ 10 uM": "2.01%"}
{"smiles": "Cn1c(=O)[nH]c(=O)c2c1ncn2Cc1ccccc1F", "% Inhibition @ 10 uM": "-2.84%"}
{"smiles": "CCC(C)(C(=O)NC1CCCC1)N(CC1CCCO1)C(=O)CNC(=O)c1ccccc1", "note": "(stereo not shown)", "% Inhibition @ 10 uM": "7.29%"}
{"smiles": "COc1ccccc1CNC(=O)[C@H](Cc1ccccc1)N1Cc2ccccc2C1=O", "% Inhibition @ 10 uM": "4.54%"}
